Read counts are not given, so values of variants with three or more changes are uncertain.

Our source for the self-cleavage values is the RNAGym collection of RNA variant scans (doi:10.7554/elife.90254).

B1: LINE1-mini (parent)
chain: GGCAGAGCUCAACACAGCGUGGCAAAGUGGCUGUGGCUAGACUGCC

Variants of B1 are the subject of this series. Kind of series: self-cleavage, relative activity (ratio to wild type); higher = more cleavage; in vitro, sequencing; the parent is a self-cleaving ribozyme.
Consider A4C G7U C8A C10A G40U, for which the self-cleavage stood at 0.05.
As to A4C G5C C18G, the self-cleavage was determined as 0.03.
For the variant A4C G30C G33A, the self-cleavage came out at 0.02.
Regarding A4G A16C G22C G29C, the self-cleavage came out at 0.16.
Regarding A4G G7U U9A A11G U20C, the self-cleavage turned out to be 0.01.
The value for A4C U20C G33C was 0.16; that for A4C G21U G22A G35U was 0.19; that for A4C C23A G30C G44C was 0.06.
Turning to A4C A12C G17U U38A, the self-cleavage came out at 0.03.
To A4G G7U C10A G22U A39U belongs 0.03; to A4C G30U C31A, 0.04; to A4C C18G G21A U43A, 0.04.
A4G C10U G19C A26G C45A: the self-cleavage is 0.03.
To A4G G17U G29A G44C C46U belongs 0.04.
On to A4C A14U U20A G30U A41U, for which the self-cleavage is 0.01.
The value for A4C G7A A39U was 0.11; that for A4C C10U C18U G19U A39G was 0.03.
The value for A4C G40C G44C was 0.06; that for A4G A12C C46A was 0.01.
For the variant A4G C15U U38A, the self-cleavage was determined as 0.17.
The value for A4G C8A G17U G40U G44C was 0.06; that for A4C A12U C23U was 0.52.
The value for A4G C15U C18U A26G C31U G44U C45U was 0.01.
To A4C C10U A12G U32C belongs 0.04; to A4G G7U G17C G21U, 0.06.
For A4C C8U C23G G36U, the self-cleavage was 0.13.
Regarding A4C C10A U28A, the self-cleavage amounted to 0.01.
To A4G A25U G36A C37G belongs 0.12; to A4G C13A C15G G22A, 0.06; to A4G C15G G35U C45A, 0.09.
With A4G G5C U9G G27U G33U A41G, the self-cleavage was found to be 0.02.
The value for A4G G17U U20A G21C G22U G27U was 0.1; that for A4C A12G C23G was 0.
To A4G A25G C45A belongs 0.12; to A4G C18A U28G C42G, 0.02.
The value for A4G C10U G44C was 0.02; that for A4C G17U U32A was 0.22; that for A4C C10A C15G U20A A26G was 0.01.
For A4C C18A G33U C37A G40A A41G, the self-cleavage worked out at 0.01.
The value for A4G A16U G17C A25C G27C was 0; that for A4G G19U G40A was 0.08.
Turning to A4C G22C C42A, the self-cleavage was found to be 0.1.
As to A4C C8A C18U U20G A25C G27A U38C, the self-cleavage was determined as 0.04.
Take A4G G7U C8A A12C C45A: the self-cleavage is 0.21.
Consider A4C C10U A25U C46U, for which the self-cleavage stood at 0.1.
To A4G A24C C46U belongs 0.08.
The value for A4G C10G U38C G40A was 0.01; that for A4G G7C G27A was 0.07; that for A4G C8G G29U G35U was 0.04.
Regarding A4G A6G U9A G40A, the self-cleavage came to 0.11.
Consider A4C C10A A12C G44U, for which the self-cleavage came to 0.
To A4G C18U C31U U43G C46U belongs 0.02.
Turning to A4G C42G C45U, the self-cleavage amounted to 0.15.
Regarding A4C A11C G30A C37G C45G, the self-cleavage is 0.
To A4C G17U G35U A41U belongs 0.06.
The value for A4G C10A U20G was 0.04; that for A4G G5U C10A C15A G40A was 0.02.
With A4G G7A C18A G27U C31U G44U C45G, the self-cleavage amounted to 0.07.
The value for A4G A6C A14C was 0.15; that for A4G G5A A12C A16C was 0; that for A4G G19C G22A was 0.12.
The value for A4C G7A C23U U38A U43A was 0.2.
With A4C C18G C45A, the self-cleavage turned out to be 0.06.
The value for A4G G7C U9G C10A C15A C23U was 0.01; that for A4C G5C A6C C10U was 0.04.
To A4C G33A U38G G44U belongs 0.08; to A4C G27U G30U, 0.34.
For A4C C15G C46A, the self-cleavage was found to be 0.02.
For A4G C10A G17C U34G C45G, the self-cleavage was determined as 0.02.
To A4G C23A G40A C42U belongs 0.03; to A4G G7U U9G, 0.18; to A4C G30U G33C, 0.36.
To A4C G17U G27C C37G C42U belongs 0.01.
For the variant A4C A12G C13A A25C G33C C37U, the self-cleavage worked out at 0.02.
For A4C G29A C31U, the self-cleavage is 0.09.
For A4C G7C G29C, the self-cleavage was determined as 0.22.
The value for A4C G5A A6U C8A A11U G33U was 0.02; that for A4C G7U C15U U20G A39C was 0.25; that for A4G A11C C13G A39G was 0.03.
To A4C C18U G33A belongs 0.01.
The value for A4C C8U C10G G27U U43G was 0.
For A4C C10U C15G U32A A41U, the self-cleavage was found to be 0.
To A4C G7A C18A A26G G29U C45U belongs 0.14.
The value for A4C C15G G27C G29A C42U was 0.01.
The value for A4C C18A G35U G40U was 0.01.
For the variant A4C C23G U43C G44A, the self-cleavage was 0.05.
To A4C G5C C8U U32G belongs 0.12.
For the variant A4C A16G C23U U32C C42G G44C, the self-cleavage is 0.04.
A4C A25C G30C C31A: the self-cleavage turned out to be 0.42.
To A4G C10A C13U C23A belongs 0.01; to A4C G22C U28C U32C, 0.
In the case of A4C C15A G22C U32A A41U, the self-cleavage was found to be 0.06.
As to A4G A11G G27U U38G C46G, the self-cleavage stood at 0.
As for A4C G22A A41U, the self-cleavage stood at 0.11.
The value for A4C C10A G40U was 0.06; that for A4C C10A G40A was 0.02.
As to A4C G5A G35A, the self-cleavage was 0.06.
To A4C A25U G29U G30A C42A belongs 0.09; to A4G G17U C18U U28C G35U A39U, 0.03.
The value for A4C G36U A39G G44C was 0.12; that for A4G C15A C37U was 0.17.
Take A4G A16C G27C: the self-cleavage was 0.02.
To A4C C10A C23U belongs 0.04.
The value for A4C A11C G27U G33U C37U was 0.
In the case of A4G C8U C10U G17C A25U G29U G33U, the self-cleavage was determined as 0.16.
As to A4G G17U G29U, the self-cleavage came out at 0.11.
The value for A4C C8U U20G C23G G27U G29U G44U was 0.07.
As to A4C C10A A11G U34C G44U, the self-cleavage stood at 0.01.
For A4G C15G G22U C37U, the self-cleavage came out at 0.02.
In the case of A4G A41G U43C C45U, the self-cleavage was found to be 0.03.
The value for A4C U9G C18G was 1.69; that for A4G A14C U32G was 0.15; that for A4G C8U A12G C18U was 0.14.
For A4C G21C G22U A41C, the self-cleavage came to 0.26.
With A4C G17C G27A U43C, the self-cleavage stood at 0.03.
To A4G A12U C13U A14G belongs 0.19.
The value for A4G G17U A24U G35U G36A was 0.26; that for A4G A24U U32C was 0.
To A4G A6G G27U G36U G44U belongs 0.11; to A4G C10A G27C C31G G33A, 0; to A4C A14G C42U, 0.17.
In the case of A4C G5A A16U U28A G44C C46U, the self-cleavage was found to be 0.06.
The value for A4G A11U A24C was 0.05; that for A4C C18U A25G A26G G30U was 0.02.
As to A4G A11C A12U, the self-cleavage worked out at 0.01.
For the variant A4C A25G A26U U38A, the self-cleavage came to 0.07.
As for A4C A24U G33A A39G U43C, the self-cleavage worked out at 0.01.
For the variant A4G A6U G19U C46A, the self-cleavage worked out at 0.32.
The value for A4G C18U U32A A39C was 0.05; that for A4G C10G C15G G27A A41G was 0.01; that for A4G A25G A26G was 0.2.
To A4G A6C G27C belongs 0.03; to A4C U9G C31U C42G, 0.03; to A4G G7U C23A C31A A41U, 0.07.
Regarding A4G G7A A11U C46G, the self-cleavage came out at 0.04.
To A4G A6G A14C C23A A39C belongs 0.03; to A4G C10G A11U A12C C23A C31U C42U, 0.02; to A4G C8G G17A C18A, 0.06.
For A4G G17U C18A, the self-cleavage is 0.22.
To A4C C23A G27U belongs 0.04; to A4C G7C C13U G44U, 0.48.
As to A4C A39C C45G, the self-cleavage turned out to be 0.58.
To A4G A12C C23G G40A belongs 0.23; to A4C C18A C31A G40A U43A, 0.17; to A4G C23U G27U, 1.73.
The value for A4G G17U C18A G33A was 0.57.
The value for A4C U32C G44U was 0.11; that for A4C C10A G19C U38G G40A was 0.01.
On to A4C C13U C31U, for which the self-cleavage was 0.05.
To A4G G17C U20C C23G belongs 0.22.
With A4C C15U G17U, the self-cleavage was 0.08.
To A4G C10A A16G C37U C42A U43A belongs 0.
To A4G C8U A14C G21U G22C U32G G40U belongs 0.05.
Regarding A4C G22U U32G, the self-cleavage came to 0.1.
The value for A4G A16G G17U was 0.05; that for A4G C8A G40C was 0.17.
To A4G A6G C13A C46U belongs 0.02; to A4G A6C A14G C23A A26C G29A, 0.34.
As to A4G A16U A24U, the self-cleavage came to 0.18.
To A4C G5C C18G U38C G44C belongs 0.02.
The value for A4G A11U C37A U38A was 0.02.
To A4G A11U G17U G29U belongs 0.02; to A4G C31A A39C, 0.03.
Turning to A4G G17U A41U C45A, the self-cleavage stood at 0.
The value for A4C G5C U20G was 0.03.
On to A4C C10U A26G, for which the self-cleavage stood at 0.03.
For the variant A4G C8A A12C A26G U43C, the self-cleavage is 0.02.
